In all, about 420,000 compounds went through this assay and about 64,000 (15%) were called active. The shares of active, inactive and inconclusive entries below differ from those in the screen. The call rests on the fitted dose curve; in most records, active means well fitted inhibition curve with a large enough effect; inconclusive means small, poorly fitted or top-dose-only effect; inactive means flat fitted curve, though single readings scatter. Potencies of inconclusive entries are left out as doubtful fits.
assay: qHTS for Inhibitors of human tyrosyl-DNA phosphodiesterase 1 (TDP1): qHTS in cells in absence of CPT; conditions: DT40 Tdp1-/- hTDP1 cells, no CPT, ATP luminescence, 48 h; activity change, negative = growth inhibition: at 46.2 µM (top of the series) unless noted; further: nearly all actives have a fitted effect of over 55% in size
In short: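 No-CPT arm: Tdp1-/-;hTDP1 DT40 cells (400/well) plus compounds, incubated ≥48 hr at 37 °C. Readout CellTiter-Glo luminescence.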
On the % scale 0 is the no-effect control and ±100 the full control effect; potency means the concentration at half of the fitted maximal effect; tags describe the fitted curve by direction and shape.

| Structure (SMILES) | Potency | activity change, negative = growth inhibition |
| --- | --- | --- |
| CC1(C)Cc2nc(-c3ccccc3)nc(SCC(=O)N3CCCC3)c2CO1 | inconclusive [inhibitor, single point] | – |
| Cc1nc(Cl)sc1C(=O)Nc1cc(F)cc(F)c1 | inconclusive [inhibitor, single point] | – |
| CCOc1ncccc1C(=O)OCC(=O)NCCCc1ccccc1 | inconclusive [inhibitor, single point] | – |
| Cn1ccn(CCCCCCn2ccn(C)c2=S)c1=S | inconclusive [inhibitor, partial curve] | – |
| CC(C)COc1ccc(C(=O)N/C(=C\c2cccc([N+](=O)[O-])c2)C(=O)OC(C)C)cc1 | inconclusive [inhibitor, single point] | – |
| O=C(Cc1ccc(-c2ccccc2)cc1)NCCS(=O)(=O)N1CCN(c2cccc(Cl)c2)CC1 | inconclusive [inhibitor, partial curve] | – |
| CCc1ccc(OCC(=O)NC(NC(=S)Nc2ccc(C)cc2C)C(Cl)(Cl)Cl)cc1 (stereo unspecified) | active: 23.1 µM | – |
| O=C1C=C(c2cc3ccccc3s2)C[C@@H](c2ccc(F)cc2)C1 | inconclusive [inhibitor, single point] | – |
| CN(Cc1ccc(F)cc1Cl)S(=O)(=O)c1cccs1 | – | inactive: -27.8% |
| CCOc1ccc(CN(C)CC(=O)Nc2ccc3c(c2)CCC3)cc1OC | active: 16.4 µM | – |
| Cc1cccc(NC(=S)NC2CC3CCCC(C2)N3CC(C)C)c1 (stereo unspecified) | inconclusive [inhibitor, single point] | – |
| Nc1ccc(C(=O)Nc2nc3ccccc3s2)cc1 | – | inactive: -27.6% |
| COc1ccccc1C(=O)C1CCCN(C(=O)c2ccccc2Cl)C1 (stereo unspecified) | – | inconclusive: -30% [inhibitor] |
| COc1ccccc1-n1cc(-c2ccccc2)c2c(=S)nc[nH]c21 | inconclusive [inhibitor, single point] | – |
| CC(C)c1ccc(C2c3[nH]c4ccccc4c3C[C@H]3C(=O)N(c4ccccc4C(=O)N4CCC(C(=O)O)CC4)C(=O)N23)cc1 (stereo partly specified) | inconclusive [inhibitor, single point] | – |
| CS(=O)(=O)c1ncc(Cl)c(C(=O)N2CCN(c3cccc(Cl)c3)CC2)n1 | active: 0.517 µM | – |
| O=C1CC(c2ccccc2)CC(O)=C1C=Nc1ccccc1Cl (stereo unspecified) | – | inactive: -32.7% |
| CCn1cc(/C=C(\NC(=O)c2ccccc2)C(=O)NCCN2CCOCC2)c2ccccc21 | inconclusive [inhibitor, single point] | – |
| O=C(Nc1nc(-c2ccccc2)cs1)C1CCCN(S(=O)(=O)c2ccccc2)C1 (stereo unspecified) | active: 6.51 µM | – |
| CN(CCOc1ccccc1)C(=O)c1cc(-c2ccco2)nc2ccccc12 | inconclusive [inhibitor, single point] | – |
| CC(=O)Nc1ccc(OCC(O)CN2CCN(c3ccc(Cl)cc3)CC2)cc1 (stereo unspecified) | inconclusive [inhibitor, single point] | – |
| Cc1cc(N2CCN(c3cccc(C(F)(F)F)c3)CC2)n2nc(C)nc2n1 | inconclusive [inhibitor, single point] | – |
| CCCCCCCCCCCC(=O)N/N=C/c1ccco1 | inconclusive [inhibitor, single point] | – |
| O=C(NC1CCSc2ccccc21)c1cccc(Br)c1 (stereo unspecified) | – | inactive: -25% |

| Structure (SMILES) | Potency | activity change, negative = growth inhibition |
| --- | --- | --- |
| Cc1nc2cc(-c3ccc(Cl)cc3)nn2c(C)c1CCC(=O)N1CCN(c2ccccc2)CC1 | – | inactive: -1.18% |
| O=C(CN1C(=O)COc2ccc(S(=O)(=O)N3CCOCC3)cc21)NCc1ccc(Cl)cc1 | – | inactive: -9.28% |
| Cc1cc(C(=O)CSc2nc(N)cc(=O)[nH]2)c(C)n1Cc1ccco1 | active: 0.82 µM | – |
| O=C(NC(=S)N1CCCCCC1)c1ccc(Cl)cc1Cl | inconclusive [inhibitor, single point] | – |
| COc1ccc(S(=O)(=O)NCCCc2ccccc2)cc1 | – | inactive: -27.7% |
| CCC(C)[C@@H](C(=O)Nc1ccc(OC)c(OC)c1)N1Cc2ccccc2C1=O (stereo partly specified) | inconclusive [inhibitor, single point] | – |
| CCOC(=O)CSc1nc2sc3c(c2c(=O)n1-c1ccccc1)CCN(C)C3 | inconclusive [inhibitor, single point] | – |
| NC(=O)c1ccc(NC(=O)Cn2c(=O)n(-c3ccccc3)c(=O)c3oc4ccccc4c32)cc1 | inconclusive [inhibitor, single point] | – |
| COc1ccc(C(=O)c2cc([N+](=O)[O-])ccc2N2CCN(C)CC2)cc1 | active: 3.26 µM | – |
| Cc1oc2ncn(CC(C)C)c(=O)c2c1C(=O)NCc1cccc(Cl)c1 | active: 16.4 µM | – |
| CCOC(=O)Cc1csc(NC(=O)c2c(O)c3ccccc3n(CC(C)C)c2=O)n1 | – | inactive: -1.74% |
| CN(C)CCOCCOc1ccccc1-c1ccccc1 | inconclusive [inhibitor, single point] | – |
| O=C(N/N=C/C(Cl)=C/c1ccccc1)c1ccccc1F | inconclusive [inhibitor, single point] | – |
| Cc1ccc(/C(N)=N/OC(=O)COc2ccc(Cl)c(C)c2)cc1 | – | inactive: -38.7% |
| Cc1ccc2c(c1)C1CN(C)CCC1N2S(=O)(=O)c1cccc(C(F)(F)F)c1 (stereo unspecified) | inconclusive [inhibitor, single point] | – |
| COCCNc1ncnc2ccc(-c3ccccc3CN(C)C)cc12 | – | inactive: -13.2% |
| Cn1cnnc1SCC(=O)NNC(=O)COc1ccc(Cl)cc1 | – | inactive: 1.66% |
| Cc1cccc2cc(CN(Cc3ccco3)C(=O)c3cccs3)c(=O)[nH]c12 | inconclusive [inhibitor, single point] | – |
| CCOC(=O)c1nn(-c2ccccc2C)c2nc(-c3ccc(C)cc3)c(C#N)c(=O)n12 | inconclusive [inhibitor, partial curve, poor fit] | – |
| Cc1ccc(-c2onc(C)c2C)cc1S(=O)(=O)N1CCC(C)CC1 | inconclusive [inhibitor, single point] | – |
| CN(C)S(=O)(=O)c1cccc(NC(=O)CN2C(=O)NC(Cc3ccccc3)C2=O)c1 (stereo unspecified) | inconclusive [inhibitor, single point] | – |
| COc1ccc(N2CC(C(=O)Nc3nc4ccc(F)cc4s3)CC2=O)c(OC)c1 (stereo unspecified) | inconclusive [inhibitor, single point] | – |
| Cc1cc(CNC(=O)c2cnn(-c3nccc(-c4ccc5c(c4)OCO5)n3)c2C2CC2)on1 | inconclusive [inhibitor, single point] | – |
| COc1ccc(/C=C2\CCn3c2nc2cc(C(=O)O)ccc2c3=O)cc1O | – | inactive: 5.04% |

| Structure (SMILES) | Potency | activity change, negative = growth inhibition |
| --- | --- | --- |
| COC(CSc1nc(N)c2c3c(sc2n1)CN(C)CC3)OC | inconclusive [inhibitor, single point] | – |
| COc1cccc(NC(=O)Cn2c3ccccc3c3nc4n(c(=O)c32)CCS4)c1 | – | inactive: -18% |
| Cc1ccc(Cl)cc1NC(=S)N(CCCN1CCN(C)CC1)Cc1cccs1 | – | inactive: -16% |
| CC(C)Oc1ccc(CNC(=O)c2cc3cccc4c3n2CC(C)S4)cc1 (stereo unspecified) | inconclusive [inhibitor, single point] | – |
| NC(N)=Nc1ccc(Cl)cc1 | inconclusive [inhibitor, partial curve, poor fit] | – |
| CCc1ccccc1OCc1nc2ccc(S(=O)(=O)N3CCOCC3)cc2[nH]1 | inconclusive [inhibitor, single point] | – |
| O=c1c2ccccc2c(C=Nc2ccc(O)cc2)c(O)n1-c1nccs1 | inconclusive [inhibitor, single point] | – |
| Cc1ccc(CN2CCC(C(=O)c3ccc(F)cc3)CC2)cc1 | inconclusive [inhibitor, single point] | – |
| CN(Cc1ccc(F)cc1)Cc1nc(-c2cnccn2)no1 | – | inactive: -23.6% |
| COc1ccc(NS(=O)(=O)c2ccc(O)c(C(=O)OCC(=O)NC(C)C3CC4CCC3C4)c2)cc1 (stereo unspecified) | – | inactive: 6.52% |
| COc1cc(Cl)c(C)cc1NC(=O)CNC(=O)Cn1ccc2ccccc2c1=O | – | inactive: -8.19% |
| O=C(Cc1ccsc1)NCC(=O)Nc1ccccc1Br | – | inactive: -0.781% |
| COc1cccc(-c2nn(-c3ccccc3)cc2CN(C)C(C)c2ccncn2)c1 (stereo unspecified) | inconclusive [inhibitor, single point] | – |
| Cc1ccc2c(c1)C(c1ccccc1)N(C(=O)c1ccccc1)CC(=O)N2 (stereo unspecified) | inconclusive [inhibitor, single point] | – |
| COC(=O)C1=C(C)N(Cc2ccccc2)C(=NCCc2ccccn2)N[C@H]1c1cccc(F)c1 | inconclusive [inhibitor, partial curve, poor fit] | – |
| COc1ccc(NC2CCCN(C(=O)C3=NNC(=O)CC3)C2)cc1 (stereo unspecified) | – | inactive: -8.57% |
| Cc1ccc2c(c1)Sc1ccccc1CC2=O | – | inconclusive: -36.3% [inhibitor] |
| CC(C)(C)OC(=O)N(CCc1ccccc1)Cc1ccccc1OCc1ccc(NC(=O)C2CCCC2)cc1 | inconclusive [inhibitor, single point] | – |
| COC(=O)c1c(NC(=O)C2c3ccccc3Oc3ccccc32)sc(C)c1C | inconclusive [inhibitor, single point] | – |
| CCc1ccc(/C=N/NC(=O)c2cc(C3CC3)nc3ccc(Br)cc23)s1 | active: 4.61 µM | – |
| COc1ccc(Cl)cc1NC(=O)c1ccc(CN2C(=O)CCn3nc(C)cc32)cc1 | inconclusive [inhibitor, single point] | – |
| COc1ccc(-c2nnc(SCC(=O)Nc3ncc(C)s3)n2-c2ccccc2)cc1OC | active: 23.1 µM | – |
| O=C(O)C1CCCC2CN3CCc4c([nH]c5ccccc45)C3C(O)C21 (stereo unspecified) | inconclusive [inhibitor, single point] | – |
